Experimental data published in PMC4336329 (PLoS ONE, 2015).
About 14,000 (4.5%) of roughly 310,000 compounds showed an effect of 50% or more. The effect is printed as a negative number. The list shows a part of the results.

Target: human ether-à-go-go-related gene (hERG) potassium channel (human, UniProt Q12809)
Assay: primary screen, population patch clamp on CHO cells stably expressing hERG
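Note: peak tail current of the secondary pulse compared with the same well before compound.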

human ether-à-go-go-related gene (hERG) potassium channel, sequence (Q12809 whole entry, looked up): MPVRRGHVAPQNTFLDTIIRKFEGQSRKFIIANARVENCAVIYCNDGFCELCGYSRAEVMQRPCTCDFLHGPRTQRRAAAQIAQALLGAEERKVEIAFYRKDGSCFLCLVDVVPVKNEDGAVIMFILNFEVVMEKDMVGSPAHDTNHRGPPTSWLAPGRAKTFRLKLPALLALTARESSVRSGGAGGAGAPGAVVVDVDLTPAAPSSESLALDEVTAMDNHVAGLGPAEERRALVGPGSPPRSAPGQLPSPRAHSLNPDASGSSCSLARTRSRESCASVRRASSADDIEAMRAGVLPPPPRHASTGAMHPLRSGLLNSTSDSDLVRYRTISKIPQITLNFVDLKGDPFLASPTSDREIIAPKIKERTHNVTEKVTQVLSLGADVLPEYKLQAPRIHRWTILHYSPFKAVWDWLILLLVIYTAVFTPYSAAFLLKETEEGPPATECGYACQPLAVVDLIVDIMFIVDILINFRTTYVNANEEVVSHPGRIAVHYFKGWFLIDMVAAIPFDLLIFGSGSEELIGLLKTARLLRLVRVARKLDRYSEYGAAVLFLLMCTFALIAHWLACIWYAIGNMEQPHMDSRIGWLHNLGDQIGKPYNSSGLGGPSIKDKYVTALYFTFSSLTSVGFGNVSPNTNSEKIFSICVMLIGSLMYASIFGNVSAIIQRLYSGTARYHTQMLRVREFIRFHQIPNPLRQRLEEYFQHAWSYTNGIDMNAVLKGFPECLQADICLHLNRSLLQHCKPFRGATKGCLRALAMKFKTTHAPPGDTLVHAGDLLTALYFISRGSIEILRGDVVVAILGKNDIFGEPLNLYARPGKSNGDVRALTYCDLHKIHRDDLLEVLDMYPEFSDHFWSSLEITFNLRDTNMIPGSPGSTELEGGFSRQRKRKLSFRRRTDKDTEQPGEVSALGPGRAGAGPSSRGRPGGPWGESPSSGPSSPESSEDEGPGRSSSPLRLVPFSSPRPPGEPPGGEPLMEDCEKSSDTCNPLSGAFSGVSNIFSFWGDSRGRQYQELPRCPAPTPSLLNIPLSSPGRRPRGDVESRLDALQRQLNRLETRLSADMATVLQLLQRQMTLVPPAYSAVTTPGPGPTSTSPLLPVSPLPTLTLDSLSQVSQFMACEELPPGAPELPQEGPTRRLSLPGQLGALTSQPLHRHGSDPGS

Structure (SMILES) | hERG current change (%, negative = inhibition) at 10uM [%]
CC(=O)Oc1ccc(C(=O)Nc2cc(C)ccc2NC(=O)COc2ccccc2)cc1 | 6.98
Cc1ccc(-n2c(N)c(C(=O)N3CCN(C)CC3)sc2=S)cc1 | -30.4
COc1ccc(NC(=O)Nc2ccc(N3CCCC3=O)cc2)cc1OC | 6.13
CC(/C=C/c1ccccc1)=N\NC(=O)C1CC1(C)c1ccccc1 (centres unmarked) | -2.18
Cc1nc(CS(=O)(=O)c2ccccc2)cc(N2CCOCC2)n1 | 1.36
COc1ccc(C(=O)NCc2ccon2)cc1OC1CCN(C(C)C)CC1 | -45.6
COc1cc(C(c2c(C)[nH][nH]c2=O)c2c(C)[nH][nH]c2=O)cc(OC)c1OC | 12.2
C/C(=N\Nc1ccc(Cl)c(Cl)c1)c1ccc(-n2ccnc2)cc1 | -2.92
CCOc1ccc(S(=O)(=O)N2CCCCC2)c2ccccc12 | 4.71
O=c1[nH]c2cc3c(cc2cc1CN(Cc1nnnn1C1CCCC1)C1CCCC1)OCCO3 | -7.16
COc1ccc(NC(C)=O)cc1S(=O)(=O)NC(Cc1ccccc1)C(=O)O (centres unmarked) | 6.11
COc1cccc(CN2CCCCC2C(=O)O)c1 (centres unmarked) | 8.05
CCOC(=O)C1=C(COC(=O)CCOc2ccc(OC)cc2)NC(=O)NC1C (centres unmarked) | -4.43
Cc1nnc(SCc2nc3ccccc3[nH]2)s1 | -11.2
O=C1SC(c2ccccc2)=C/C1=C\N1CCCCC1 | -14
O=C(CCSc1ccccc1)N1CCN(c2ccccc2)CC1 | -19.9
COc1ccc(N2C(=O)CC(NC3CC3)C2=O)cc1 (centres unmarked) | 12.5
CCOc1ccc(N(CC(=O)Nc2ccccc2F)S(=O)(=O)c2c(C)[nH]c(=O)[nH]c2=O)cc1 | 15.2
Cc1ccsc1C(=O)C1CCCN(Cc2cnc(N3CCOCC3)s2)C1 (centres unmarked) | -33.1
O=C(Oc1c(CN2CCOCC2)cc(Cl)c2cccnc12)c1ccccc1F | -8.38
COCCCC1CCN(C(=O)c2cc(COc3ccc(C)nc3)on2)CC1 | 0.809
CN1CCN(C(=O)CC2C(=O)NCCN2Cc2ccc(-c3ccccc3)cc2)CC1 (centres unmarked) | 2.25
CC(=O)c1cccc(NC(=O)COC(=O)CC2CC3CCC2C3)c1 (centres unmarked) | -15.6

Structure (SMILES) | hERG current change (%, negative = inhibition) at 10uM [%]
O=C(Nc1ccc(F)cc1F)Nc1csc2ccccc12 | 19.2
O=C(Nc1ccnc(-c2cccnc2)n1)c1cccs1 | -23
COc1ccc(NC(=O)C2C3C=CC4(O3)C2C(=O)N(CCN2CCCCC2C)C4C(=O)NC2CCCC(C)C2C)cc1 (centres unmarked) | -22.4
CN1C(=O)NC(c2cccc(O)c2)C(C(=O)c2cccs2)C1(O)C(F)(F)F (centres unmarked) | 9.55
O=c1c2cnn(-c3ccccc3)c2nc(-c2cccs2)n1-c1cccc(Cl)c1 | 13.6
Cc1ccc(-c2csc(N3CCN(c4cc5c(cc4Cl)nc(-c4ccncc4)n5CCN4CCCCC4)CC3)n2)cc1 | 10.5
CN1CCN(C(=O)/C(=C/c2cn(S(=O)(=O)N(C)C)c3ccccc23)NC(=O)c2ccccc2Cl)CC1 | 20.2
O=C(OCC(=O)N1CCCCC1)c1cc2ccccc2cc1O | 4.06
O=C(Cc1ccccc1)Nc1cccc(NC(=O)c2ccccc2)c1 | 10.2
Nc1ccc(S(=O)(=O)[O-])c[nH+]1 | 4.6
COc1ccc(C2(c3ccc(OC)cc3)NC(=O)N(CC(=O)N(C)c3ccccc3)C2=O)cc1 | 14.7
CC(C)Oc1ccc(S(=O)(=O)N2CCCCC2)cc1NC(=O)CN1C(=O)NC2(CCCC2)C1=O | -2.87
Cc1ccc(S(=O)(=O)CCC(=O)OCC(=O)NCc2ccccc2)cc1 | -10.8
Cc1nn(C(=O)c2ccco2)c(C)c1Sc1ccc(Br)cc1 | -4.64
CC1(C)CC(NC(=O)CCc2nnc(CCCCc3ccccc3)o2)CCO1 (centres unmarked) | 13.8
O=C(CCl)Nc1sccc1C(=O)c1ccccc1 | 4.71
O=C1CS/C(=C\[N+](=O)[O-])N1c1ccccc1 | -2.96
CC(=O)Nc1ccc(S(=O)(=O)NCC2CCC(C(=O)NCCC3=CCCCC3)CC2)cc1 (centres unmarked) | -7.16
O=S1(=O)CC(NCc2ccccc2)C(Nc2ccc(Cl)cc2)C1 (centres unmarked) | -14.4
Clc1cccc(-c2nc3nc4ccccc4nc3n2Cc2ccco2)c1 | -28.9
CCC(C(=O)Nc1cc(C(=O)O)ccc1C)c1ccccc1 (centres unmarked) | 15
CC(C)n1c(CN(C)Cc2ccccc2)nc2c1c(=O)n(C)c(=O)n2C | 11.4
CS(=O)(=O)c1ccc(C(=O)OCC(=O)N2CCCc3ccccc32)cc1 | -2.78

Structure (SMILES) | hERG current change (%, negative = inhibition) at 10uM [%]
NS(=O)(=O)c1ccc(O)c(NC(=O)c2ccc([N+](=O)[O-])o2)c1 | 10.8
COc1ccccc1C(=O)Nc1ccc2nc3n(c(=O)c2c1)CCCC3 | -36.3
COc1cc(NC(=O)CSc2nnc(-c3ccncc3)o2)cc(OC)c1OC | 22.4
S=c1nc2ccccc2c2nc(-c3ccccc3Cl)[nH]n12 | 19.2
Cc1nnc(NC(=O)CSc2nc3ccccc3o2)s1 | 25.2
COc1ccc(C(O)C(CC(=O)NCCCOC(C)C)C(=O)NCCCOC(C)C)cc1OC (centres unmarked) | 11
Oc1cccc2ccc(/C=C/c3ccccc3Br)nc12 | 25.3
O=c1cc(CN2CCCCC2)nc(C2CC2)[nH]1 | -2.2
Cc1cc(NC(=O)c2c(Cl)cnn2C)no1 | 8
CCOC(=O)C1=C(CSc2n[nH]c(N)n2)NC(=O)NC1C (centres unmarked) | 3.79
CC12CN3CC(C)(CN(C1)C31CCSCC1)C2=O | 16.3
COC(=O)C1=C2SC(C)C(=O)N2C(N)=C(C#N)C1c1ccc(OC)c(OC)c1 (centres unmarked) | -17.2
COc1ccc(CNC(=O)c2cccc(NC3=NC4CS(=O)(=O)CC4S3)c2)cc1 (centres unmarked) | 6.27
COCCOc1ccc(C(F)(F)F)cc1NC(=O)COC(=O)c1cc[n+]([O-])cc1 | -34.7
COc1ccc(C(=O)NCc2c(CC(C)C)oc(C)c2C(=O)O)cc1 | 7.66
Cc1cc(O)cc(O)c1-c1onc(C(F)(F)F)c1-c1cscn1 | 7.85
Cc1ccc(Cl)cc1-n1ncc2c(NNC(=O)c3ccco3)ncnc21 | 3.6
Cc1nonc1OC(C)CNc1ccc([N+](=O)[O-])cc1 (centres unmarked) | -58.7
CCCNS(=O)(=O)c1ccc(N2CCCC2=O)c([N+](=O)[O-])c1 | 1.22
COc1cccc2cc(C(=O)NCCN3CCOCC3)oc12 | 15.4
CC(=O)Nc1ccc(NC(=O)c2cc(-c3ccc(C)cc3O)n[nH]2)cc1 | 19.3
O=C(CCN1C(=O)C2C3C=CC(C3)C2C1=O)N1CCN(c2ccccc2F)CC1 (centres unmarked) | -4.87
O=C(NCCc1ccccc1Cl)C1CC(=O)N(C2CCCCC2)C1 (centres unmarked) | -4.43

Structure (SMILES) | hERG current change (%, negative = inhibition) at 10uM [%]
COC(=O)c1ccc(CNC(=O)COC(=O)Cc2ccsc2)cc1 | -6.64
CCC1CCCCN1CCCNC(=O)c1ccc(N2CCOCC2)c(NS(=O)(=O)c2ccc(OC)cc2)c1 (centres unmarked) | -57.6
COc1c(F)c(F)c(C(=O)O)c(Nc2ccccc2)c1F | -3.79
O=C(/C=C/c1ccccc1[N+](=O)[O-])NCc1ccc(Cl)cc1 | 4.15
CCSc1nnc(NC(=O)C(C(F)(F)F)C(F)(F)F)s1 | -3.7
Cc1cccn2c(=O)nc(SCC(=O)NCc3ccc(F)cc3)nc12 | -26.1
Cc1cc(O)ccc1NS(=O)(=O)c1ccc2c3c(cccc13)C(=O)N2 | -14.6
CCOc1ccc(Nc2cc(C)nc(N3CCOCC3)n2)cc1 | 0.875
Cn1c(SCc2c(F)cccc2Cl)nnc1-c1cccs1 | -30.8
CCOC(=O)C1(CCc2ccccc2)CCN(Cc2c(O)cccc2OC)CC1 | -95.1
CCC(=O)N(Cc1cc2cc(OC)ccc2[nH]c1=O)c1ccccc1C | -4.22
CCOC(=O)/C=C/c1ccc2c(c1)S(=O)(=O)N(Cc1ccc(OC)cc1)[C@H]2CC(=O)OCC | -18.2
CC1=CC(C)C(C[N+]2(C)CCCCC2)C(C)C1.[I-] (centres unmarked) | 15.5
CCCCN(C)C(=O)Cn1c(=O)oc2cc(S(=O)(=O)N3CC(C)CC(C)C3)ccc21 (centres unmarked) | -21.2
Cc1ccc(N2CC(C(=O)NCCN3CCOCC3)CC2=O)cc1 (centres unmarked) | 8.92
CCN1CCN(CCCN(Cc2ccco2)C(=S)Nc2ccc(C)c(Cl)c2)CC1 | -64.8
COCCn1c(Cc2ccccc2)nnc1SCC(=O)Nc1ccccc1 | 5.83
CCN1CCCC1CNC(=O)c1cc([N+](=O)[O-])c(N(C)C)cc1OC (centres unmarked) | -1.67
O=C1OCCC1N1C(=O)c2ccccc2S1(=O)=O (centres unmarked) | -12
CSc1cc(-c2ccccc2)[nH]c(=O)c1C#N | 6.16
